Out of some 220,000 compounds screened, about 16,000 (7.3%) were called active. Inconclusive means that the source gave no clear call. Such entries were picked first, then a sample of the others. The call rests on the fitted dose curve; in most records, active means well fitted inhibition curve with a large enough effect (not every such curve was filed as active); inconclusive means small, poorly fitted or top-dose-only effect, or another doubt; inactive means no such curve, though single readings can be large or run the other way. Where the call is inconclusive, the potency comes from a doubtful curve fit.
biological target: Aldehyde dehydrogenase 1A1 (Homo sapiens) (UniProt P00352); test: qHTS Assay for Inhibitors of Aldehyde Dehydrogenase 1 (ALDH1A1); settings: Purified ALDH1A1, NADH fluorescence, propionaldehyde substrate; series mostly up to 75.3 µM; activity, negative = inhibition: at the top concentration;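 on activity, negative = inhibition: plate controls were no enzyme wells and a reference inhibitor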
Chain of UniProt P00352 (P00352 whole entry, looked up): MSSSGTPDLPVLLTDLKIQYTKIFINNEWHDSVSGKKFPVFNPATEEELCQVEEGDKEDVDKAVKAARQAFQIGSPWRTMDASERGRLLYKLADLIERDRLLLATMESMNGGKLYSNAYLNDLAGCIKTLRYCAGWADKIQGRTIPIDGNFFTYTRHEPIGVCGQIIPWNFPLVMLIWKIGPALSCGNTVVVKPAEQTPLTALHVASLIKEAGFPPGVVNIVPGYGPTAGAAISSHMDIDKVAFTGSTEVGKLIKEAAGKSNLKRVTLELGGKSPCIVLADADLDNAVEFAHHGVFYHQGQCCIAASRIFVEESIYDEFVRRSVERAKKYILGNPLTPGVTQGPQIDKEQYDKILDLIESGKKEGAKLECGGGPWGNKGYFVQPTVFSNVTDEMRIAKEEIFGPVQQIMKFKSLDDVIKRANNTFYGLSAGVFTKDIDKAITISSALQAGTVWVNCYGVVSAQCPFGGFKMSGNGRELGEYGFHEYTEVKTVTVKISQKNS
Potency means the concentration at half of the fitted maximal effect; tags describe the fitted curve by direction and shape.

Potency, inconclusive:
Cc1cccc(Nc2nc(-c3cccs3)cs2)n1 12.6 µM [inhibitor, partial curve, poor fit], CCOC(=O)C1(CC2CCCCO2)CCN(C(=O)Nc2ccccc2CC)CC1 (stereo not drawn) 20 µM [inhibitor, partial curve, poor fit], CS(=O)(=O)Nc1ccc(C(=O)NCCSC2CCCCC2)cc1 39.8 µM [inhibitor, single point], OC[C@@H]1O[C@@H](O)[C@H](N=Cc2ccc3c(c2)OCO3)[C@@H](O)[C@@H]1O 7.08 µM [inhibitor, single point], COc1ccc(NC(=O)Cc2ccc(Cl)cc2)cc1NC(=O)c1ccco1 28.2 µM [inhibitor, partial curve], CNc1nc(OCC#N)nc(N2CCCCC2)n1 39.8 µM [inhibitor, single point], CCc1cc(=O)oc2cc(OCC=C(C)C)ccc12 25.1 µM [inhibitor, partial curve], CCNC(=S)NN(c1ccccc1)c1ccccc1 37.7 µM [inhibitor, single point], O=C(N1CCOCC1)C1(c2ccc(Cl)cc2)CCCC1 28.2 µM [inhibitor, partial curve], CC(=O)N1CCCc2cc(S(=O)(=O)N(C)CCC#N)ccc21 39.8 µM [inhibitor, single point], COc1ccc2nc(NC(=O)CSc3nnc(-c4ccoc4C)n3C)sc2c1 44.7 µM [inhibitor, single point], O=C(/C=C/c1cccc([N+](=O)[O-])c1)NC(=S)Nc1ccccc1C(=O)O 39.8 µM [inhibitor, single point], Cc1ccc(C=Nc2ccccc2C(N)=O)o1 28.2 µM [inhibitor, partial curve], CC1CN(S(=O)(=O)c2ccc(C(=O)Nc3nnc(-c4ccc5c(c4)CCCC5)o3)cc2)CC(C)O1 (stereo not drawn) 37.7 µM [inhibitor, single point], N#Cc1c(C#N)c(-c2ccccc2)n(-c2ccc(C(=O)O)cc2)c1N 39.8 µM [inhibitor, single point], COC(=O)[C@@H]1C[C@H]1[C@@H](NC(=O)c1cc(C)nn1C)c1ccccc1 28.2 µM [inhibitor, single point], CCN(CC)C(=O)C1CCCN(c2ncnc3c2cnn3-c2cccc(C)c2)C1 (stereo not drawn) 20 µM [inhibitor, partial curve], CCOC(=O)c1c(CN2CCOCC2)oc2ccc(OC)cc12 25.1 µM [inhibitor, single point], Cc1ccc(N(Cc2ccc([N+](=O)[O-])cc2)C(=O)c2ccco2)cc1C 20 µM [inhibitor, partial curve], Cc1ccc(S(=O)(=O)Cc2sc3ccccc3[n+]2C)cc1 25.1 µM [inhibitor, single point], N#CC1(C#N)C2=C(CCCC2)NC(c2ccccc2)C1(C#N)C#N (stereo not drawn) 39.8 µM [inhibitor, single point], CO/N=C/NC(=O)c1cn(-c2ccc(F)cc2)c(=O)c2ccccc12 28.2 µM [inhibitor, single point], COc1ccc(CNC(=O)CSc2nnc(C)s2)cc1 39.8 µM [inhibitor, single point], CCC/C(O)=C1\C(=O)CCCC1=NC(C)C(=O)O (stereo not drawn) 39.8 µM [inhibitor, single point], CC(C)CNC(=O)NC(=O)COc1c(F)c(F)cc(F)c1F 28.2 µM [inhibitor, single point], O=C(c1ccco1)N1CCN(c2ncccn2)CC1 39.8 µM [inhibitor, single point], COc1ccccc1-c1nc(C(N)=O)c2[nH]c(=O)n(-c3cccc(C)c3)c2n1 39.8 µM [inhibitor, single point], CCOC(=O)N1CCC(NC(=O)CSCc2nc(-c3ccc(OC)c(OC)c3)oc2C)CC1 31.6 µM [inhibitor, single point], Cc1ccc(S(=O)(=O)CCCS(=O)(=O)c2ccc(C)cc2)cc1 20 µM [inhibitor, partial curve], O=C(CN(CCO)c1ccccc1)Nc1ccc(Cl)c(S(=O)(=O)N2CCOCC2)c1 35.5 µM [inhibitor, single point], COc1ccc(C)cc1NC(=O)c1nnn(Cc2cccc(F)c2)c1N 39.8 µM [inhibitor, single point], CC(=O)NCCn1c(SCc2cccc([N+](=O)[O-])c2)nc2ccccc2c1=O 3.55 µM [inhibitor, single point], Cc1cc(C(=O)CN2C(=O)C(=O)N(CC(C)C)C2=O)c(C)n1-c1ccccc1F 25.1 µM [inhibitor, single point], CCOc1ccccc1C(=O)N(C)Cc1cc2cc(OC)ccc2[nH]c1=O 28.2 µM [inhibitor, partial curve], CCOC(=O)c1cccc(NC(=O)c2cnc3ccccc3n2)c1 4.47 µM [inhibitor, single point], O=C(CCCN1C(=O)c2ccccc2C1=O)Nc1sc2c(c1C(=O)NCc1ccco1)CCC2 22.4 µM [inhibitor, partial curve], COCCNc1ncnc2ccc(-c3ccc(N(C)C)cc3)cc12 28.2 µM [inhibitor, single point], CC(CN1CCN(C)CC1)OC(=O)c1ccc(Cl)cc1Cl (stereo not drawn) 7.08 µM [inhibitor, partial curve, poor fit], Cc1c([C@@H]2C[C@H]3CN(Cc4cccc(Cl)c4)C(=O)[C@]34CCCN24)cnn1C 37.7 µM [inhibitor, single point], COc1ccccc1CNC(=O)c1ccccc1NS(C)(=O)=O 39.8 µM [inhibitor, single point], O=C(NCC(=O)N(c1cccnc1)C(C(=O)NC1CCCC1)c1ccco1)c1cccs1 (stereo not drawn) 0.0794 µM [inhibitor, full curve, poor fit], CC(=O)N1c2ccccc2C(=O)OC1c1cccnc1 (stereo not drawn) 28.2 µM [inhibitor, partial curve]

Potency, active:
Cc1ccc(C2CC2C(=O)NNC(=S)Nc2cccc(Cl)c2)cc1 (stereo not drawn) 7.08 µM, Fc1cccc(F)c1-n1c(CN2CCCC2)csc1=S 22.4 µM, O=C(O)C(=O)/C(=C\c1ccc([N+](=O)[O-])cc1)c1ccc2ccccc2n1 11.2 µM, O=C(NC1CCCCC1)C(c1ccco1)N(CCc1ccccc1)C(=O)C(F)(F)F (stereo not drawn) 31.6 µM, Oc1ccc(C=Nc2ccc3ncccc3c2)c(O)c1 28.2 µM, c1ccc(OCc2nn3c(Cn4cnc5ccccc54)nnc3s2)cc1 18.9 µM, COc1cc(/C=C2\SC(c3ccccc3)=NC2=O)cc(Cl)c1O 5.01 µM, COC(=O)c1sccc1NC(=O)CSc1ccccc1NS(=O)(=O)c1ccc(Cl)cc1 12.6 µM, COc1cccc(CC2(CO)CCCN(Cc3[nH]c4ccc(C)cc4c3C)C2)c1 (stereo not drawn) 22.4 µM

activity, negative = inhibition, inactive:
CCOc1cc(/C=N/NC(=O)CN2CCOCC2)ccc1OCc1ccccc1 -4.39%, CCNC(=O)N1C(=O)C2(OCCO2)c2cc(Br)ccc21 2.74%, COc1ccc(C(=O)Oc2ccc(C(C)=O)cc2)c(OC)c1 6.83%, CCn1c(C)nc2cc(C(=O)N=Nc3c(O)[nH]c4c(C)cc(C)cc34)ccc21 -1.82%, COc1cccc(-c2cc(C(=O)NCCN3CCOCC3)no2)c1 3.54%, CC(C)OC(=O)Cn1cc(C#N)c2ccccc21 10.1%, O=C(CNC(=O)c1cccs1)OCC(=O)c1ccccc1 6.11%, CC1(C)NC(=O)N(CC(=O)OCC(=O)Nc2cccc(S(N)(=O)=O)c2)C1=O -3.62%, CCn1ccnc1C(O)c1ccccc1OC (stereo not drawn) 2.35%, CN1CCN(CP(=O)(N2CCOCC2)N2CCOCC2)CC1 9.95%, O=C(Nc1ccccc1)N1CC[C@@]2(CCCN(C(=O)c3cc(C(F)(F)F)cc(C(F)(F)F)c3)C2)C1 2%, Cn1nc(N)nc1N1CCN(c2ccc(F)cc2)CC1 10.7%, Cc1ccsc1/C=N/N1CCN(C2c3ccccc3-c3ccccc32)CC1 -1.82%, CC(O)CNCc1ccccc1C(F)(F)F (stereo not drawn) 5.71%, S=C(S)NCCCn1ccnc1 -3.91% [at 13.5 µM], OCCN(CCO)c1ccc(C(c2ccccc2Cl)c2ccc(N(CCO)CCO)cc2Cl)c(Cl)c1 1.74%, CC(=O)Nc1ccccc1C=C1c2ccccc2-c2ccccc21 8.93% [at 13.5 µM], COc1cccc2c1C(=O)c1c(O)c3c(c(O)c1C2=O)C[C@@](O)(C(=O)CO)C[C@@H]3OC1C[C@@H](N)[C@H](O)[C@H](C)O1 (stereo partly drawn) -11.7%, CNc1nc(Sc2ccc(C)cc2)cc(C(F)(F)F)n1 -10.4%, Fc1ccccc1-c1n[nH]c(=S)n1CC1CCCO1 (stereo not drawn) 2.67%, COc1ccc(OC)c(N(CC(=O)Nc2ccc3c(c2)OCCO3)S(C)(=O)=O)c1 -4.78%, O=C(OCCCCN1C(=O)c2ccccc2C1=O)c1n[nH]c2ccccc12 9.47%

— PubChem BioAssay AID1030 (National Center for Advancing Translational Sciences (NCATS), 2008)
